From patent US20240101716A1 (LA NOVA MEDICINES DEVELOPMENT, published 2024)
Read-outs that look alike come from different tables or passages of the source.

Key:
[1] = target: T1, recombinant human PD-L1 His protein (human, UniProt Q9NZQ7 fragment); test: SPR Biacore T200, PD-L1 His on chip, HCAb analyte
T1 construct: not shown: His tag
Description: (§1) Association and dissociation phases were 5 and 10 min, respectively. The chip was regenerated using Glycine/HCl pH 1.5.

[2] = target: T1, recombinant human PD-L1 His protein; test: SPR affinity ranking, PD-L1/His as ligand on chip
T1 sequence (Q9NZQ7 19-239 limits assumed): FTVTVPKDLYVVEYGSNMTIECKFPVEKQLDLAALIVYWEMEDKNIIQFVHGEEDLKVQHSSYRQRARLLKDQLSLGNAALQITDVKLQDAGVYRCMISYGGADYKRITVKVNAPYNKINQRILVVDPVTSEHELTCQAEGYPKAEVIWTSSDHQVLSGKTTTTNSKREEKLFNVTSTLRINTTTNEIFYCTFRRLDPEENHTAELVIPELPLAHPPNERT

[3] = target: T2, human PD-L1 on CHO-K1 cells (human, UniProt Q9NZQ7); test: cell-based or functional assay
[4] = target: T1, recombinant human PD-L1 His protein; test: SPR Biacore T200, PD-L1 His on chip, HCAb analyte; remark: listed apart in the source
Description: (§2) Affinity constant (Kd) of each sdAb and HCAb was determined by surface plasmon resonance (SPR) on a BIAcore T200 instrument. Briefly, PD-L1 His was amine-coupled to a CMS sensor chip at a density of no higher than 100 RU. […] Flow rate was 30 μl/min in all experiments. Association and dissociation phases were 5 and 10 min, respectively. The chip was regenerated using Glycine/HCl pH 1.5. Binding curves at different concentrations of sdAbs and HCAbs were used to calculate the kinetic parameters kₒₙ, koff and KD.

[5] = target: T2, human PD-L1 on CHO-K1 cells; test: cell-based or functional assay; remark: listed apart in the source
T2 sequence (Q9NZQ7 19-290): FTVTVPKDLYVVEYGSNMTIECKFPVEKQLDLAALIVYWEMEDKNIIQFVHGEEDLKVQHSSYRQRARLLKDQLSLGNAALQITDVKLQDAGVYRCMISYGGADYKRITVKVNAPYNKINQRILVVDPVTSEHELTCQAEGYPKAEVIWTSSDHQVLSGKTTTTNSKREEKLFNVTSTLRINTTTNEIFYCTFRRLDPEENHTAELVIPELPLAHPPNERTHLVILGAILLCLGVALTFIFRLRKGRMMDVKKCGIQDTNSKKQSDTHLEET

[6] = target: T1, recombinant human PD-L1 His protein; test: SPR affinity ranking, PD-L1/His as ligand on chip; remark: listed apart in the source
[7] = target: T1, recombinant human PD-L1 His protein; test: SPR affinity ranking, PD-L1/His as ligand on chip; remark: listed apart in the source
[8] = target: T1, recombinant human PD-L1 His protein; test: SPR Biacore T200, PD-L1 His on chip, HCAb analyte; kd outside the measurable limits
Description: as §2

[9] = target: T1, recombinant human PD-L1 His protein; test: SPR affinity ranking, PD-L1/His as ligand on chip; remark: listed apart in the source
[10] = target: T1, recombinant human PD-L1 His protein; test: SPR Biacore T200, HCAb captured by anti-human IgG, PD-L1 His analyte
Description: as §1

[11] = target: T1, recombinant human PD-L1 His protein; test: SPR affinity ranking, PD-L1/His as ligand on chip; remark: listed apart in the source

| Kd [1] [nM] | koff [1] [s⁻¹] | kon [1] [M⁻¹ s⁻¹] | EC50 of PD-L1-based blockade assay (luciferase reporter) [3] [nM] | Kd [4] [nM] | koff [4] [s⁻¹] | kon [4] [M⁻¹ s⁻¹] | EC50 of PD-L1-based blockade assay (luciferase reporter) [5] [nM] | Binder | also measured |
| --- | --- | --- | --- | --- | --- | --- | --- | --- | --- |
| 1.8 | 0.00036 | 200000 | 9.98 | 0.0392 | 2.81e-05 | 719000 | 3.6 | AS06750 HCAb (Fc fusion, heavy chain-only antibody: sdAb fused with human Fc region) AVQLVESGGGLVQAGDSLRLSCTASGRTFLTYAVGWFRQAPGTEREFVAGIRWSGGYTDYADSVKGRFTISRDNAKNTVYLQMNSLKPEDTAVYYCAAHRTIATIPEKYEYEYWGQGTQVTVSS[skipping human IgG1 Fc] | Kd [2]: 2.21 nM; koff [2]: 0.00033 s⁻¹; kon [2]: 149000 M⁻¹ s⁻¹ |
|  |  |  | 6.66 | 0.0557 | 3.34e-05 | 599000 |  | AS06682 HCAb (Fc fusion, heavy chain-only antibody: sdAb fused with human Fc region) AVQLVESGGGLVQAGDSLRLSCTASGRTFLSYAVGWFRQAPGTEREFVAGIRWSGEHTDYAASVKGRFTISRDNAKNTVYLQMNSLKPEDTAVYYCAAHTTIATIPKKYEYEYWGQGTQVTVSS[skipping human IgG1 Fc] |  |
|  |  |  | 9.34 | 0.434 | 0.000247 | 569000 |  | AS12003 HCAb (Fc fusion, heavy chain-only antibody: sdAb fused with human Fc region) EVQLVESGGGLVQAGDSLRLSCAASGRTFLSYAVGWFRQAPGTEREFVAGIRWSGGSTDYADSVKGRFTISRDNAKNTVYLQMNSLKPEDTAVYYCAAHRTIATVPNKYEYDTWGQGTQVTVSS[skipping human IgG1 Fc] |  |
|  |  |  | 6.45 | 0.0335 | 1.41e-05 | 421000 |  | AS06618 HCAb (Fc fusion, heavy chain-only antibody: sdAb fused with human Fc region) EVQLVESGGRLVRAGDSLRLSCAASGRTFLSYAVGWFRQAPGTEREFVAGIRWSGGYTDYAEAVKGRFTISRDNAKNTVYLQMNSLKPEDTAVYYCAAHRTIATIPEKYEYEYWGQGTQVTVSS[skipping human IgG1 Fc] |  |
| 2.1 | 0.001 | 480000 | 6.2 | 0.106 | 5.51e-05 | 520000 | 3.86 | AS06617 HCAb (Fc fusion, heavy chain-only antibody: sdAb fused with human Fc region) DVQLVESGGGLVQAGDSLRLSCAASGRTFISYAVGWFRQAPGSEREFVAGIRWNGIHTDYADSVKGRFTISRDNAKNTVTLEMTSLKPEDTAVYYCAAHRTIATIPEKYEYEYWGQGTQVTVSS[skipping human IgG1 Fc] | Kd [6]: 1.4 nM; koff [6]: 0.00043 s⁻¹ |
| 1.4 | 0.00043 | 310000 | 5.8 | 0.069 | 3.29e-05 | 476000 | 3.08 | AS06775 HCAb (Fc fusion, heavy chain-only antibody: sdAb fused with human Fc region; also called AS0775) QVQLVESGGGLVQAGDSLRLSCAASGRTFLTLAVGWFRQAPGTEREFVAGIRWSGSGTDYADSVKGRFTISRDNAKNTVYLQMNSLKPEDTAVYYCAAHTTIATIPEKYEYEYWGRGTQVTVSS[skipping human IgG1 Fc] | Kd [7]: 1.7 nM; koff [7]: 0.00036 s⁻¹; kon [7]: 210000 M⁻¹ s⁻¹ |
|  |  |  | 5.54 |  |  | 553000 |  | AS06778 HCAb (Fc fusion, heavy chain-only antibody: sdAb fused with human Fc region) QVQLVESGGGLVQAGGSLKLSCAASGRTFITYAMGWFRQAPGKERELVAAISWSGSSTYSADSVKGRFTISRDNAKNTVYLQMNSLKPEDTAVYYCAAEVSARTGEHLPKLMGDYWGQGTQVTVSS[skipping human IgG1 Fc] | Kd [8]: < 0.0181 nM; koff [8]: < 1e-05 s⁻¹ |
| 1.8 | 0.00062 | 350000 | 5.8 | 0.108 | 8.25e-05 | 761000 | 5 | AS11948 HCAb (Fc fusion, heavy chain-only antibody: sdAb fused with human Fc region) EVQLVESGGGLVQAGDSLRLSCVASGRTFVTYGMGWFRQAPGKEREFVAAINWSGSMTSYGDSVKGRFAISRDNAKNTVYLQMNSLKPEDTAVYYCAAALGAVVYTTREPYTYWGRGTQVTVSS[skipping human IgG1 Fc] | Kd [9]: 1.96 nM; koff [9]: 0.000582 s⁻¹; kon [9]: 297000 M⁻¹ s⁻¹ |
|  |  |  | 7.55 | 0.31 | 0.000226 | 730000 |  | AS11947 HCAb (Fc fusion, heavy chain-only antibody: sdAb fused with human Fc region) DVQLVESGGGLVQAGDSLRLTCSASGRTFISYAVGWFRQAPGTEREFVAGIRWNGISTDYTDSVKGRFTISRDNAKNTVYLQMNSLKPEDTAIYYCAAHRTIATIPNKYEYDHWGQGTQVTVSS[skipping human IgG1 Fc] |  |
|  |  |  | 5.88 | 0.0155 | 1.98e-05 | 1.27e+06 |  | AS06628 HCAb (Fc fusion, heavy chain-only antibody: sdAb fused with human Fc region) QVQLVESGGGLVQAGGSLRLSCAASGRTFITYAIGWFRQAPGKEREFVTAINWSGSMTSYADSVKGRFTISRDNNKNMVYLQMNSLKPEDTAVYYCAAHRGAIAPMTQSVYDYWGQGTQVTVSS[skipping human IgG1 Fc] |  |
|  |  |  |  |  |  |  | 4.6 | AS06730SVH12 HCAb (Fc fusion, humanized HCAb: sdAb fused with human Fc region) EVQLVESGGGLVQPGGSLRLSCAASGRTFITYAIGWFRQAPGKGREFVSAISWSGSMTSYADSVKGRFTISRDNAKNTLYLQMNSLRPEDTAVYYCAAHRGAIAPIAQSVYTNWGQGTLVTVSS[skipping human IgG1 Fc] | Kd [10]: 6.1 nM; koff [10]: 0.0018 s⁻¹; kon [10]: 300000 M⁻¹ s⁻¹; Kd [11]: 6.1 nM; koff [11]: 0.0018 s⁻¹ |
|  |  |  | 5.82 | 0.0683 | 5.33e-05 | 781000 |  | AS06791 HCAb (Fc fusion, heavy chain-only antibody: sdAb fused with human Fc region) QVQLVESGGGLVQAGGSLRLSCAASGRTFITYAIGWFRQAPGKEREFVTAINWSGSMTSYADSVKGRFTISRDNAKNTVYLQINGLKSEDTAVYYCAAHRGAIAPMTQSVYDYWGQGTQVTVSS[skipping human IgG1 Fc] |  |
|  |  |  | 5.59 |  |  | 555000 |  | AS06703 HCAb (Fc fusion, heavy chain-only antibody: sdAb fused with human Fc region) EVQLVESGGGLVRAGGSLRLSCAASGRTFITYAIGWFRQAPGKEREFVTAINWSGSMTSYADSVKGRFTISRDNNKNTVYLQMNSLKPEDTALYYCAAHLGAIAPMSQSVYDYWGQGTQVTVSS[skipping human IgG1 Fc] | Kd [8]: < 0.018 nM; koff [8]: < 1e-05 s⁻¹ |
| 2.7 | 0.0012 | 430000 |  |  |  |  | 4.28 | AS06617VH11 HCAb (Fc fusion, humanized HCAb: sdAb fused with human Fc region) EVQLVESGGGLVQPGGSLRLSCAASGRTFISYAVGWFRQAPGKGREFVSGIRWSGIHTDYADSVKGRFTISRDNAKNTLYLQMNSLRPEDTAVYYCAAHRTIATIPEKYEYEYWGQGTLVTVSS[skipping human IgG1 Fc] | Kd [6]: 2.7 nM; koff [6]: 0.0012 s⁻¹; kon [6]: 430000 M⁻¹ s⁻¹ |
| 1.7 | 0.00036 | 210000 |  |  |  |  | 3.43 | AS06775VH4 HCAb (Fc fusion, humanized HCAb) EVQLVESGGGLVQPGGSLRLSCAASGRTFLTYAVGWFRQAPGKGLEFVSGIRWSGGYTDYADSVKGRFTISRDNSKNTLYLQMNSLRAEDTAVYYCAAHRTIATIPEKYEYEYWGQGTLVTVSS[skipping human IgG1 Fc] | Kd [7]: 2.92 nM; koff [7]: 0.000716 s⁻¹; kon [7]: 246000 M⁻¹ s⁻¹ |
| 1.6 | 0.0005 | 320000 |  |  |  |  | 5.26 | AS06775VH11 HCAb (Fc fusion, humanized HCAb) EVQLVESGGGLVQPGGSLRLSCAASGRTFLTLAVGWFRQAPGKGREFVSGIRWSGSGTDYADSVKGRFTISRDNAKNTLYLQMNSLRPEDTAVYYCAAHTTIATIPEKYEYEYWGQGTLVTVSS[skipping human IgG1 Fc] | Kd [7]: 1.6 nM; koff [7]: 0.0005 s⁻¹; kon [7]: 320000 M⁻¹ s⁻¹ |
|  |  |  | 7.37 | 0.156 | 0.000153 | 979000 |  | AS06686 HCAb (Fc fusion, heavy chain-only antibody: sdAb fused with human Fc region) AVQLVESGGGLVQAGDSLRLACAASGRTFLTYALGWFRQAPGKEREFVAGVSWSGSSTKYADSVKGRFTISRDNAKNTVYMQMNSLKPEDTAVYYCAAQISAIVPISAHEYQYWGQGTQVTVSS[skipping human IgG1 Fc] |  |
